Measurements from patent US20140275511A1, “PURIFICATION OF […]” (priority 2013, published 2014).

What was measured:
[1] = moderate to high pH cation fractions
Text: First, the fermentation broth is preferably adjusted in pH to 4.0±0.5. Bayer recommends using acetic acid. We have found this useful. Broth which is frozen and later thawed will tend to lose some NikZ potency. […] It is preferable to use fresh broth.
At this point, Bayer and Shaman teach acidifying the cation eluate to pH 4. […] The AEX column preferably is loaded with material at pH about 8.0.

[2] = well stoppered brown bottle, 2-8° C.
Protocol: An alternative method of concentration is by rotary evaporation. It is highly preferable to use a high vacuum, better than 29 inches of mercury. Less than 50 milliTorr is desirable, and particularly 10-20 milliTorr. Bath temperature should be 35° C. for the first 50% volume reduction, then can be raised to 45° C. With experience, these temperatures can be increased a bit. When suitably concentrated, the material can be lyophilized. Drying in a vacuum oven at up to 60° C. for 24 hours should get the moisture to less than 6%. 3 to 4% moisture is preferable. The material can be stored in a well closed vessel for long periods.

For C[C@@H]([C@H](N)C(=O)N[C@H](C(=O)O)[C@H]1O[C@@H](n2ccc(=O)[nH]c2=O)[C@H](O)[C@@H]1O)[C@H](O)c1ccc(O)cn1 [Nikkomycin Z], the “stability in cation exchange eluate fractions” value [1] was “not stable for long” and the “storage stability of dried material” value [2] was “for years without undue degradation”.
